For this experiment, the system named is mPer2Luc MEF. In words: PER2::LUC luminescence relative to vehicle control (fold of vehicle); higher = higher PER2::LUC reporter signal. The following applies: 10 µM. The method, boiled down:
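Each value gives PER2::LUC luminescence as fold of vehicle control, measured with the ONE-Glo luciferase assay system in mouse embryonic fibroblasts carrying the mPer2Luc reporter. Cells grown in DMEM with 10% FBS at 37 °C and 5% CO2 were seeded at ~3000 per well in 384-well plates. Library compounds were added at 10 μM 48 h later, and readings were taken 24 h and 30 h after treatment.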

“And” between values parts separate entries of the source, which are not always exact repeats. Equal entries are not always repeated. Over roughly 5,300 compounds, “PER2::LUC luminescence relative to vehicle control” has its median near 0.96; the highest 2% begin near 1.3. The list shows a part of the results.

Turning to `CCCc1nc(C)c2c(O)nc(-c3cc(S(=O)(=O)N4CCN(CC)CC4)ccc3OCC)nn12`, the “PER2::LUC luminescence” value (time after treatment 24 h) was 0.872 and the “PER2::LUC luminescence” value (time after treatment 30 h) was determined as 0.86.
The corresponding values for `O=C(NOCCO)c1cc(CN2OCCCC2=O)c(F)c(F)c1Nc1ccc(I)cc1F` are 0.301 and 0.24.
With `O=C1C=CC(=C(c2ccc(O)cc2)c2ccc(O)cc2)C=C1`, the “PER2::LUC luminescence” value by setting is: (time after treatment 24 h) 0.697; (time after treatment 30 h) 0.767.
As for `CCN(CC)CCNC(=O)c1ccc(NC(C)=O)cc1`, the “PER2::LUC luminescence” value was 0.955 and 1 and 1.18 (time after treatment 24 h); 1.05 and 0.966 and 1.11 (time after treatment 30 h).
Take `CCCCCCN(CCCCCC)C(=O)Cc1c(-c2ccc(F)cc2)[nH]c2ccccc12`: the “PER2::LUC luminescence” value is 0.972 and 0.993 (time after treatment 24 h); 0.97 and 0.924 (time after treatment 30 h).
Consider `CCOc1ccn(-c2ccc(F)cc2)c(=O)c1C(=O)Nc1ccc(Oc2ccnc(N)c2Cl)c(F)c1`, for which the “PER2::LUC luminescence” value runs as follows: (time after treatment 24 h) 1.11; (time after treatment 30 h) 1.11.
Regarding `CCC(=O)NS(=O)(=O)c1ccc(-c2c(-c3ccccc3)noc2C)cc1`, the “PER2::LUC luminescence” value was determined as 1.17 (time after treatment 24 h) and 1.12 (time after treatment 30 h).
Regarding `CCn1cc(-c2ccnc3[nH]c(-c4cccc(CN(C)C)c4)cc23)c(-c2ccc(NC(=O)N(C)C)cc2)n1`, the “PER2::LUC luminescence” value by setting is: (time after treatment 24 h) 0.071; (time after treatment 30 h) 0.065.
In the same order, the values of `CN1C(=O)CC(C)(c2ccccc2)C1=O` (stereo unspecified) are 1.16 and 0.963.
For the compound `CNC[C@H](O)c1cccc(O)c1`, the “PER2::LUC luminescence” value runs as follows: (time after treatment 24 h) 1.08; (time after treatment 30 h) 1.03.
Regarding `N[C@@H]1CN(c2c(F)cc3c(=O)c(C(=O)O)cn([C@@H]4C[C@@H]4F)c3c2Cl)CC12CC2`, the “PER2::LUC luminescence” value (time after treatment 24 h) was 0.976 and 1.07; the “PER2::LUC luminescence” value (time after treatment 30 h) is 0.96 and 1.12.
In the case of `CC(=O)NNC(=O)N1Cc2ccccc2Oc2ccc(Cl)cc21`, the “PER2::LUC luminescence” value was 0.984 (time after treatment 24 h) and 0.784 (time after treatment 30 h).
Take `CC[C@H](CC[C@@H](C)[C@H]1CC[C@H]2[C@@H]3CC=C4C[C@@H](OC(C)=O)CC[C@]4(C)[C@H]3CC[C@]12C)C(C)C`: the “PER2::LUC luminescence” value is 1.04 (time after treatment 24 h) and 1.02 (time after treatment 30 h).
In the same order, the values of `C[C@]12CC[C@@H](O)C[C@H]1CCc1ccccc12` are 1.02 and 1.05.
With `CCOC(=O)[C@H](CCc1ccccc1)N[C@@H](C)C(=O)N1[C@H](C(=O)O)C[C@H]2CCCC[C@@H]21`, the “PER2::LUC luminescence” value by setting is: (time after treatment 24 h) 0.86; (time after treatment 30 h) 0.871.
Regarding `O=C(O[C@@H]1Cc2c(O)cc(O)cc2O[C@@H]1c1cc(O)c(O)c(O)c1)c1cc(O)c(O)c(O)c1`, the “PER2::LUC luminescence” value runs as follows: (time after treatment 24 h) 1.05 and 0.765 and 0.506; (time after treatment 30 h) 0.993 and 0.606 and 0.619.
Turning to `CC(C)(CO)[C@@H](O)C(=O)NCCCO`, the “PER2::LUC luminescence” value runs as follows: (time after treatment 24 h) 1.06; (time after treatment 30 h) 1.07.
In the same order, the values of `COC(=O)c1ccc2c(c1)NC(=O)/C2=C(\Nc1ccc(N(C)C(=O)CN2CCN(C)CC2)cc1)c1ccccc1` are 0.601 and 0.442.
In the same order, the values of `CCOc1ccc(C(Nc2ccccn2)c2ccc3ccc(C)nc3c2O)cc1C` (stereo unspecified) are 1.13 and 1.13.
Consider `N#C[C@@H]1CCCN1C(=O)CNC12CC3CC(CC(O)(C3)C1)C2`, for which the “PER2::LUC luminescence” value amounted to 0.9 (time after treatment 24 h) and 0.842 (time after treatment 30 h).
For the compound `CC(C(=O)O)[C@H]1CCC2C3CC=C4C[C@@H](O)CC[C@]4(C)C3CC[C@@]21C` (stereo partly specified), the “PER2::LUC luminescence” value came to 1.07 (time after treatment 24 h) and 1.11 (time after treatment 30 h).
Regarding `COc1ccc(/C=C\c2cc(OC)c(OC)c(OC)c2)cc1OP(=O)(O)O`, the “PER2::LUC luminescence” value was determined as 0.41 (time after treatment 24 h) and 0.469 (time after treatment 30 h).
As for `CC(C)(O/N=C(\C(=O)N[C@@H]1C(=O)N2C(C(=O)[O-])=C(C[n+]3ccccc3)CS[C@H]12)c1csc(N)n1)C(=O)O`, the “PER2::LUC luminescence” value by setting is: (time after treatment 24 h) 1; (time after treatment 30 h) 0.713.
`C=C1/C(=C\C=C2/CCC[C@]3(C)[C@@H]([C@H](C)CCCC(C)(C)O)CC[C@@H]23)C[C@@H](O)C[C@@H]1O`: the “PER2::LUC luminescence” value (time after treatment 24 h) was 0.887 and 1.18; the “PER2::LUC luminescence” value (time after treatment 30 h) was 0.86 and 1.07.
Take `C[C@@H](O)[C@H](N)C(=O)O`: the “PER2::LUC luminescence” value is, setting by setting: (time after treatment 24 h) 1.05; (time after treatment 30 h) 1.06.
For the compound `C#CCN(Cc1cc2c(=O)n(C)c(CN3CCN(C)CC3)nc2cc1Cl)c1ccc(C(=O)NCc2cccnc2)cc1`, the “PER2::LUC luminescence” value came to 0.621 (time after treatment 24 h) and 0.565 (time after treatment 30 h).
Turning to `Cc1ccc(/C(=C\CN2CCCC2)c2ccccn2)cc1`, the “PER2::LUC luminescence” value runs as follows: (time after treatment 24 h) 0.723; (time after treatment 30 h) 1.09.
The corresponding values for `O=c1onc2n1-c1cc(Br)ccc1OC2` are 0.823 and 0.963.
On to `CCOC(=O)NCCCC(=O)NCCc1ccccc1`, for which the “PER2::LUC luminescence” value (time after treatment 24 h) was found to be 1.03 and the “PER2::LUC luminescence” value (time after treatment 30 h) turned out to be 1.04.
The corresponding values for `COC(=O)c1ccc2c(c1)[nH]c1ncnc(NCCCN3CCCCC3)c12` are 0.888 and 0.899.
On to `C[C@H]1[C@H](NC(=O)/C(=N\OC(C)(C)C(=O)O)c2csc(N)n2)C(=O)N1S(=O)(=O)O`, for which the “PER2::LUC luminescence” value (time after treatment 24 h) worked out at 1.07 and the “PER2::LUC luminescence” value (time after treatment 30 h) worked out at 0.993.
In the case of `CC1=C(/C=C/C(C)=C/C=C/C(C)=C/C(=O)O)C(C)(C)CCC1O` (stereo unspecified), the “PER2::LUC luminescence” value by setting is: (time after treatment 24 h) 0.928; (time after treatment 30 h) 1.06.
`CC(C)=CCC/C(C)=C/CNCCNC1C2CC3CC(C2)CC1C3` (stereo unspecified): the “PER2::LUC luminescence” value by setting is: (time after treatment 24 h) 0.743; (time after treatment 30 h) 0.748.
Turning to `CNCCC=C1c2ccccc2CCc2ccccc21`, the “PER2::LUC luminescence” value by setting is: (time after treatment 24 h) 0.572; (time after treatment 30 h) 0.594.
`COc1cc(CNC(=O)CCCC/C=C\C(C)C)ccc1O`: the “PER2::LUC luminescence” value (time after treatment 24 h) was determined as 1.1 and the “PER2::LUC luminescence” value (time after treatment 30 h) turned out to be 1.03.
For the compound `OC[C@H]1O[C@@H](OCCc2ccc(O)cc2)[C@H](O)[C@@H](O)[C@@H]1O`, the “PER2::LUC luminescence” value runs as follows: (time after treatment 24 h) 1.01; (time after treatment 30 h) 0.94.
In the case of `FC(F)(F)c1ccc(Nc2nc(-c3c(C(F)(F)F)nc4ccccn34)cs2)cc1`, the “PER2::LUC luminescence” value (time after treatment 24 h) was found to be 0.269 and the “PER2::LUC luminescence” value (time after treatment 30 h) stood at 0.305.
On to `Cc1ccc2c(c1)CC[C@H]1CC(=O)CC[C@]21C`, for which the “PER2::LUC luminescence” value was 0.91 (time after treatment 24 h) and 0.932 (time after treatment 30 h).
On to `C=CCN1CCc2c(cc(O)c(O)c2Cl)C(c2ccccc2)C1` (racemic), for which the “PER2::LUC luminescence” value (time after treatment 24 h) is 0.968 and 0.798; the “PER2::LUC luminescence” value (time after treatment 30 h) was 0.931 and 0.743.
As for `CCc1c2c(nc3ccc(OC(=O)N4CCC(N5CCCCC5)CC4)cc13)-c1cc3c(c(=O)n1C2)COC(=O)[C@]3(O)CC`, the “PER2::LUC luminescence” value is, setting by setting: (time after treatment 24 h) 1.03 and 0.886; (time after treatment 30 h) 0.881 and 0.909.
On to `CC(=O)Nc1c(I)c(NC(C)=O)c(I)c(C(=O)O)c1I`, for which the “PER2::LUC luminescence” value runs as follows: (time after treatment 24 h) 1.05 and 1.19; (time after treatment 30 h) 1 and 1.04.
With `CCc1cc(C(N)=S)ccn1`, the “PER2::LUC luminescence” value reads like this: (time after treatment 24 h) 0.945 and 0.876; (time after treatment 30 h) 1.11 and 1.1.
Turning to `Cc1ccc(C(=O)Nc2ccc(S(=O)(=O)O)c3cc(S(=O)(=O)O)cc(S(=O)(=O)O)c23)cc1NC(=O)c1cccc(NC(=O)Nc2cccc(C(=O)Nc3cc(C(=O)Nc4ccc(S(=O)(=O)O)c5cc(S(=O)(=O)O)cc(S(=O)(=O)O)c45)ccc3C)c2)c1`, the “PER2::LUC luminescence” value is 0.964 and 0.875 (time after treatment 24 h); 0.981 and 0.97 (time after treatment 30 h).

The values above are taken from the supplement of paper PMC9334596.
